The whole screen tested about 50,000 compounds, of which about 800 (1.6%) showed an effect of 50% or more. Some of the results follow.
Target: Bcl-2-like protein 10 (Homo sapiens) (UniProt Q9HD36)
Assay: Phenotype converters, Bcl-B/TR3 peptide binding displacement, primary biochemical FP (AID 1240);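 also: 0% = Bcl-B with tracer peptide and DMSO and 100% = tracer peptide lacking Bcl-B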
Settings: GST-Bcl-B / FITC-TR3 peptide fluorescence polarization; stronger effect = higher value; compound at 3.75 mg/L

Sequence of UniProt Q9HD36 (Q9HD36 whole entry, looked up): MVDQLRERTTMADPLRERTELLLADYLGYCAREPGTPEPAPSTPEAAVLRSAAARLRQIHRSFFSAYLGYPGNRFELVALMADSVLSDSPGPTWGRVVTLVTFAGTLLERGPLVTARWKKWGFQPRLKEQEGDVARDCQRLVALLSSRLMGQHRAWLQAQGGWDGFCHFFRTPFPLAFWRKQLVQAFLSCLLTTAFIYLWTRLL

SMILES | displacement [%]
COc1ccc(-n2nc3cc(C)c(NC(=O)COc4ccc(Br)cc4)cc3n2)cc1 | 4.5
O=C(/C=C/c1c(Cl)cccc1Cl)c1ccc2c(c1)OCCO2 | 18.2
CC(C)c1ccc(NC(=O)CN(Cc2ccccc2)S(=O)(=O)c2ccccc2)cc1 | 3
O=C(Nc1ccccc1C(=O)O)c1ccc2c(c1)C(=O)N(c1ccc(O)cc1)C2=O | 15.5
Cc1ccc(-n2nc(-c3ccccc3)c3c2C(=O)C=CC3=O)cc1 | 12.4
O=[N+]([O-])c1ccccc1S(=O)(=O)NC12CC3CC(CC(C3)C1)C2 | -0.7
O=c1/c(=C/c2cc(Br)ccc2O)sc2nc3ccccc3n12 | 10.3
FC(F)(F)c1ccc2nnc(-c3cccc(Cl)c3Cl)n2c1 | -11
CC(Oc1cccc(Cl)c1)C(=O)Nc1nncs1 (centres undefined) | 4.1
CCOC(=O)c1ccc(N2C(=O)CSC23C(=O)Nc2ccccc23)cc1 (centres undefined) | 10.6
CC(C)(CO)NC(=O)NC12CC3CC(CC(C3)C1)C2 | -4.9
Cc1ccc(-c2[nH]ncc2/C=N/NC(=O)c2ccc(Br)cc2)cc1 | 4.6
CCCC(=O)n1nc(C)c2c1CC(C)(C)CC2=O | 3.7
O=c1cc(-c2c(F)c(F)c(F)c(F)c2F)oc2c(F)c(F)c(F)c(F)c12 | -8.7
COc1ccc(C(=O)CC(Nc2ccc(C)c(Cl)c2)c2ccccc2)cc1 (centres undefined) | -14.9
COc1ccc(S(=O)(=O)N(CC(=O)Nc2ccc3c(c2)OCO3)c2ccc(C)cc2)cc1OC | 4.9
O=C1NC(=O)N(c2ccc(Cl)cc2)C(=O)/C1=C/c1ccc(Br)s1 | -6.7
Cc1ccc(C(=O)Oc2cccc(C3C4=C(CC(C)(C)CC4=O)NC4=C3C(=O)c3ccccc34)c2)cc1 (centres undefined) | 5.6
COc1ccc(NC(=O)C(=O)NCCc2ccc(OC)c(OC)c2)cc1Cl | 8.9
COc1ccc(C2CC(=O)C3=C(C2)Nc2ccccc2NC3c2ccc(OC)c(Br)c2)cc1 (centres undefined) | -3.9
COc1ccc(Nc2cc(C)nc3c(C)ccc([N+](=O)[O-])c23)cc1 | 3
CCC(C)NC(=O)COc1ccc2ccccc2c1 (centres undefined) | 17.7

SMILES | displacement [%]
O=C(CN(c1cccc(Br)c1)S(=O)(=O)c1ccccc1)N1CCCC1 | 3.5
O=C(O)c1ccc(NC(=O)c2ccc3c(c2)C(=O)N(c2ccc(C(=O)O)cc2)C3=O)cc1 | 0.7
CCOc1ccc(NC(=S)NC(=O)c2ccc(OC)cc2)c([N+](=O)[O-])c1 | 8
COc1ccc(NC(=O)c2ccc(S(=O)(=O)N3CCOCC3)cc2)c2ccccc12 | -8.9
CCOC(=O)Cc1nn(CC)c(=O)c2ccccc12 | -0.4
CCOc1ccc(C(=O)Nc2cc(-c3nc4ccccc4[nH]3)ccc2C)cc1[N+](=O)[O-] | 11.8
CSc1nnc2n(-c3ccc(C)cc3)c(=O)c3c4c(sc3n12)CCCC4 | 49.7
C(=C\c1ccccc1)/C=N/Nc1nnc2c(n1)[nH]c1ccccc12 | 1.2
CCOC(=O)C1CCN(C(=O)c2ccc(C#CC(C)(C)O)cc2)CC1 | -1
COc1ccccc1/C=C/c1nc(O)c([N+](=O)[O-])c(=O)[nH]1 | 4.5
O=C(CC(=O)NCc1ccccn1)NCc1ccccn1 | -24.6
Cc1oc2ccc(OC(=O)c3cccs3)cc2c1C(=O)OC(C)C | 9.9
CC(=C/c1ccccc1)/C=N/NC(=O)c1ccccn1 | -1.4
CCOC(=O)NCc1ccc(N(C)C)cc1 | 8
O=C(Nc1cc([N+](=O)[O-])ccc1F)c1cccs1 | 6.5
COc1ccc(OC)c(NC(=O)C2COc3ccccc3O2)c1 (centres undefined) | 19.7
O=c1[nH]c(/C=C/c2ccccc2[N+](=O)[O-])nc2ccccc12 | 1.4
O=C(NC(=S)Nc1ccc(Cc2ccncc2)cc1)c1ccccc1 | 9.1
COc1ccccc1N1C(=O)CC(Nc2ccccc2)C1=O (centres undefined) | -10.3
CCCN=C(C)C1=C(O)C(C(=O)OC)C(C)(C)CC1=O (centres undefined) | -14.8
CC(C)c1nccn1S(=O)(=O)c1ccc(Cl)cc1Cl | 2.6
CC1=CC(C)(C)C(C#N)(C#N)C(N)=C1C#N | 15

SMILES | displacement [%]
O=C(Nc1ccccc1)Nc1nnc(SCc2ccc(Cl)cc2Cl)s1 | 6.2
COC(=O)C(=C/C=C/c1cccnc1)C(=O)OC | 1.7
Clc1ccc(OCCCCN2CCOCC2)cc1 | -8
Cc1ccc(C2C(C(=O)OC(C)C)C(=O)CC(C)(O)C2C(=O)OC(C)C)cc1 (centres undefined) | -6.8
COc1ccc(-c2cn3cc(Cl)ccc3n2)cc1Br | 11.2
COC(=O)CCC(C(=O)NC(=O)NC(c1ccccc1)c1ccccc1)N1C(=O)c2ccccc2C1=O (centres undefined) | 0.8
CC(C)COc1ccc(C(=O)Nc2nc(-c3ccccc3)cs2)cc1 | -6.3
CN(C)CCCCCCNC(=O)/C=N\O | 13.7
O=C(/C=C/c1ccc(F)cc1)Nc1ccccc1Cl | 9.7
CCN(CC)c1ccc(C=C2C(=O)NC(=S)NC2=O)cc1[N+](=O)[O-] | 27
O=C(N/N=C/c1ccccc1O)c1c[nH]c2ccccc12 | -1.1
COc1ccc(C2=C/C(=C/c3ccccc3OC)C(=O)O2)cc1 | 85.1
C=CCNC(=O)CN(c1ccc(F)cc1)S(=O)(=O)c1ccccc1 | -7.4
COc1ccc(/C=N/Nc2nc(C)cc(-c3ccccc3)n2)c(OC)c1 | -10.3
COc1ccc(C2/C(=C(\O)c3ccc(Cl)cc3)C(=O)C(=O)N2CCCCCC(=O)O)c(OC)c1 (centres undefined) | -0.6
O=C(Nc1ccc(O)c(-c2nc3ccccc3s2)c1)c1cc2ccccc2oc1=O | 4.4
CCOc1ccc(C2/C(=C(\O)c3ccc(C)cc3)C(=O)C(=O)N2CCCC(=O)O)cc1 (centres undefined) | -12.1
C[n+]1ccccc1/C=C/c1ccc(O)cc1 | 1.8
CCOC(=O)C1=C(O)/C(=C/c2ccco2)SC1=Nc1ccc(Cl)cc1 | -19.5
O=C1SC(Nc2ccc(O)cc2)C(=O)N1c1ccccc1 (centres undefined) | 9.5
CS(=O)(=O)c1ccc2nc(NC(=O)c3ccccc3Cl)sc2c1 | 16.4
Cc1ccc(S(=O)(=O)N/N=C/c2ccc(-c3ccc([N+](=O)[O-])cc3Cl)o2)cc1 | -9.8

SMILES | displacement [%]
COc1ccc(N/C=C/C(=O)c2ccco2)cc1 | 11.7
Cc1ccc(-c2nc(O)c(C3=c4cc(C)cc(C)c4=NC3=O)s2)cc1 | -50.9
COc1ccc(NC(=O)c2cc([N+](=O)[O-])ccc2N2CCN(C)CC2)cc1 | 1.8
COc1cc(OC)c(C2N(Cc3ccccc3)CCN2Cc2ccccc2)cc1Br | -0.1
CN(C)CCCNC(=O)N1CCOCC1 | 11
COc1ccc(C(C[N+](=O)[O-])C2(c3ccc(OC)c(OC)c3)C(=O)c3ccccc3C2=O)cc1 (centres undefined) | -1.7
Brc1ccc2nc(N/N=C/c3ccccc3)nc(-c3ccccc3)c2c1 | -6
CC(C)COc1ccc(C(=O)Nc2cc([N+](=O)[O-])ccc2Cl)cc1 | -1.1
O=C(c1ccc(Br)cc1)c1cc(Cl)ccc1NCc1ccccc1 | -2.1
Cc1ccc(-c2cc(C(F)(F)F)n3ncc(C(=O)NCc4cccnc4)c3n2)cc1 | -0.4
O=C(CN1C(=O)CCC1=O)NCCc1ccccc1 | -5.5
COC(=O)C(C)CNCc1ccccc1 (centres undefined) | 15.6
COc1ccc(Br)cc1CN1CCN(Cc2cccc([N+](=O)[O-])c2)CC1 | -19.8
COc1cccc(OC)c1C(=O)Nc1ccc2ccccc2c1 | 7.9
O=C(N/N=C\c1ccc(Cl)cc1Cl)c1cncc(Br)c1 | 6.5
Cc1cccc(NC(=O)CCCOc2ccccc2)c1C | -4.4
COC(=O)c1ccc(C(=O)OC)c(NC(=O)/C=C/c2ccc([N+](=O)[O-])cc2)c1 | -7.2
O=C1C(Cl)=C(Nc2cccc(C(F)(F)F)c2)C(=O)c2ccccc21 | 1.1
COc1ccc(NC(=O)C(=O)N/N=C/c2ccc(OC)c(OC)c2)cc1 | 6.2
Cc1cc2oc(=O)cc(C)c2cc1NC(=O)C(C)C | 21.2
COc1nc2nonc2nc1Nc1ccc(C)cc1 | 7.8
CCOc1ccccc1NC(=O)c1c(NC(=O)C(C)Oc2cccc(Cl)c2)sc2c1CCC2 (centres undefined) | 7.6

SMILES | displacement [%]
Cc1ccc(/C=C2\SC(=S)N(CCc3ccccc3)C2=O)cc1 | 17
O=C(COc1ccc(Br)cc1)Nc1cccc(NC(=O)c2ccccc2Cl)c1 | 2.4
CCC(C(=O)Nc1cc(C)cc(C)n1)c1ccccc1 (centres undefined) | 8.3
COc1ccc2oc(-c3ccccc3C)cc(=O)c2c1 | 10.6
O=C(O)c1cccc(N2C(=O)C3C4C=CC(CC4)C3C2=O)c1 (centres undefined) | 7.8
O=C(Nc1ccccc1-c1nc2ccccc2s1)c1cccc([N+](=O)[O-])c1 | 2.3
O=c1cnnc(N/N=C\c2ccc(C(F)(F)F)cc2)[nH]1 | -13.1
CCOC(=O)c1c(-c2ccccc2)oc2ccc(OC(C)C(=O)OCC)cc12 (centres undefined) | 8.1
O=C1CSC(=O)N1CNc1cc(Cl)ccc1Cl | 10.5
COc1ccc(NC(=O)C2C3CCC(C3=C(C)C)C2C(=O)O)cc1 (centres undefined) | 0
CC(=O)C1=C(O)C(=O)N(CC2CCCO2)C1c1ccccc1F (centres undefined) | -1.6
COc1ccccc1/C=C1\SC(=S)N(NC(=O)c2ccccc2Cl)C1=O | 3.9
Cc1ccc(OCC(=O)Nc2cc([N+](=O)[O-])ccc2C)c(C(C)(C)C)c1 | 6.9
CC1(C)CC(=O)C(C2(C3=C(O)CC(C)(C)CC3=O)C(=O)Nc3ccccc32)C(=O)C1 (centres undefined) | 19.1
Cc1ccc(Nc2cc(N3CCOCC3)c(N)c3c2C(=O)c2ccccc2C3=O)cc1 | 7.2
CC(=O)Nc1ccc(S(=O)(=O)Nc2ccc(Oc3ccccc3)cc2)cc1 | -12.7
CC(C)(C)c1ccc(OCC(=O)Nc2ccc(C(=O)O)cc2)cc1 | 2
O=C1NC(=S)N(c2ccc(F)cc2)C(=O)/C1=C/c1cc(Cl)c(O)c(Cl)c1 | -20
c1ccc2sc(-c3ccc(NCc4ccc5c(c4)OCO5)cc3)nc2c1 | 11.4
COc1cc(NC(=O)COc2cccc(OC)c2)cc(OC)c1 | -4.7
COc1ccc(CCNC(=O)c2ccccc2OC)cc1OC | -4.9
